Variants at the background level are over-represented here.
B1: TPR 5TU (parent)
chain: GGAUCUUCUCGAUCUAACAAAAAAGACAAAUCUGCCACAAAGCUUGAGAGCAUCUUCGGAUGCAGAGGCGGCAGCCUUCGGUGGCGCGAUAGCGCCAACGUUCUCAACUAUGACACGCAAAACGCGUGCUCCGUUGAAUGGAGUUUAUCAUG

Variants of: B1
Test: polymerase ribozyme fitness, log enrichment relative to wild type (log ratio); higher = more active; in vitro selection for triplet polymerase activity
Method in brief: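 PCR was used to build mutant libraries for each subunit of a heterodimeric triplet polymerase ribozyme, which were then transcribed. A single in vitro selection round, in triplicate, used a frozen incubation at −7 °C and recovered extended constructs by gel excision, streptavidin beads and RT-PCR. Fitness is the logarithm of genotype enrichment relative to wild-type enrichment, averaged over replicates with inverse-variance weights. The logarithm is base 2, and after Illumina sequencing only genotypes with ≥10 input reads and ≥1 read per output were kept.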

Variant | polymerase ribozyme fitness (log ratio)
A29C A37U G68C C85G A89U A120U | ≤ -4.2
A29U A40C G59U C132G U146G | ≤ -4.2
A29G G34A G112U U144A | ≤ -4.2
A29C G59A C75U | ≤ -4.2
A29G G81C C93A G133A G141A G152U | ≤ -4.2
A29G G94A C95G U127A U148G | ≤ -4.2
A28U C79G C99U A106U A113U C118A | ≤ -4.2
A29G C36G C96A A97U A110G A119U G126C | ≤ -4.2
A29C A49C G83A C87G C118G | ≤ -4.2
A28U G86A G100C G140U | ≤ -4.2
A29U C114U C123G | ≤ -4.2
A29C C85A G112A | ≤ -4.2
A28U U61C G68A G86A A89U G117C | ≤ -4.2
A29C C57G G71A U90C | ≤ -4.2
A29C A52G U55A C75G A106U A110G A121U U127A | ≤ -4.2
A28U G65C G86A C99U A113G A147G U148G | ≤ -4.2
A29U A30U U55G A73G C93G C103U A122G G141U | ≤ -4.2
A28U G59A C87A G136U | ≤ -4.2
A29G U55A A66U C69A G84U A120G U144C | ≤ -4.2
A29U C63G G68A U78G C85U G100A | ≤ -4.2
A29C A30U A49G C85U G92C | ≤ -4.2

Variant | polymerase ribozyme fitness (log ratio)
A29U C95A | -3.68
A28U U61G C87G | -4.14
A29U G34A U56A U61A G117U U139C A150C | ≤ -4.2
A28U C75G G80C A97U U101C | ≤ -4.2
A29G C54U U55A C57G C76G C87G C149U | ≤ -4.2
A28U C87U A106U C108U A119C U148C | ≤ -4.2
A29U A30C A47U G94A C118U A119U U144A U145C | ≤ -4.2
A29U A37C A49C A52G U53A G70U G143C | ≤ -4.2
A29C C69G C76U C95U C131A | ≤ -4.2
A29C A37G C87A | ≤ -4.2
A28U G59C A64G A73C A91G G141U | ≤ -4.2
A29C A150U | ≤ -4.2
A29G G92U C123A G126U A142U C149U A150U | ≤ -4.2
A28U G67A G74A G86C C108A C132A | ≤ -4.2
A29U A60C U61A G94C A120G U130G | ≤ -4.2
A29G A60C A89G A110U G143A | ≤ -4.2
A28U C85U U134C A142G | ≤ -4.2
A29C U90G | ≤ -4.2
A28U U33C A52G G65U C75G | ≤ -4.2
A28U G48C G59A A66U C69U | ≤ -4.2
A28U G42U C51G U53C G59U U90G A91G G140C U144G A150C | ≤ -4.2

Variant | polymerase ribozyme fitness (log ratio)
A29G A39G U77A U145A | ≤ -4.2
A29G C103G U104G | ≤ -4.2
A28U G34A A142G | ≤ -4.2
A28U U56A | ≤ -4.2
A29G G34C C69G G128C | ≤ -4.2
A29G C87G | ≤ -4.2
A29G C87A | ≤ -4.2
A28U U56A A91U C96G A107G C118A U145G | ≤ -4.2
A29G G68U C95G | ≤ -4.2
A29U C38U C43A G84A C93G U109G | ≤ -4.2
A29G C32U C57A A64G A91G C118U U145C U146A | ≤ -4.2
A29U A30C C32A U56A U77C A121U | ≤ -4.2
A29G A41G G81C G94C C105G G133C | ≤ -4.2
A29U C32G A60G C96A G140C A142C | ≤ -4.2
A29U G42C G48U U61A C93U G126A G143U | ≤ -4.2
A29U C93G | ≤ -4.2
A29U C95A C116U | ≤ -4.2
A28U G50A C57A U78G G88C C103A U135G | ≤ -4.2
A29G G86A U102A G136C U144C | ≤ -4.2
A29U A47G C85A C132G | ≤ -4.2
A28U U31C G48A G68A C87A C123U A137G | ≤ -4.2

Variant | polymerase ribozyme fitness (log ratio)
A29G A41U A73U G83A | ≤ -4.2
A29U G34C G48C G80A U82A C105A A115G U151A | ≤ -4.2
A29U G42A U45A A47G U55G C69G A91U G141U | ≤ -4.2
A28U G70U G83C C131U | ≤ -4.2
A29C U53G G58C C99G A137G | ≤ -4.2
A29U G48A U61G G84U C85A C105U G126U | ≤ -4.2
A29C U44A U56A C76A C95U | ≤ -4.2
A29U C99U A106G | ≤ -4.2
A29G C105G | ≤ -4.2
A28U C57U G84U G94A A98U C116A A147C | ≤ -4.2
A29U G34A U44A A60G A91C | ≤ -4.2
A29U C76G G84U C96A A122U U144A | ≤ -4.2
A29C U31C G88C A122C | ≤ -4.2
A28U G117U | ≤ -4.2
A29U A52U A89G U102G U111C C132U U135A | ≤ -4.2
A29C G42U C54G C93G G94C A98U G136A A142G G152U | ≤ -4.2
A29C G58C A66U G84U G92C C99G A119G G143U | ≤ -4.2
A29C C36A G59U G80U C87A G117C | ≤ -4.2
A29U C36U A64C C69U C95A G141C A142C | ≤ -4.2
A29U G50C G81C A89U C114A C118G | ≤ -4.2
A29C A41G A97C A122U | ≤ -4.2

Source: the RNAGym collection of RNA variant scans (doi:10.1073/pnas.2313332121)
